Results are given in words; binding and its absence hold for the method and conditions named. Some binding calls cover weakened binding; strength is not graded here.

Protein sequences, listed by entry. Tags and fused reporters are not part of them. Lines headed by an entry give the natural chain unless they say otherwise; changes in a name come on top. Chains listed by the source or under a name are the forms on record and can include a tag or linker. Residues count along the entry.
Anthrax toxin receptor 1 (Tumor endothelial marker 8, TEM-8) (Q9H6X2, form named): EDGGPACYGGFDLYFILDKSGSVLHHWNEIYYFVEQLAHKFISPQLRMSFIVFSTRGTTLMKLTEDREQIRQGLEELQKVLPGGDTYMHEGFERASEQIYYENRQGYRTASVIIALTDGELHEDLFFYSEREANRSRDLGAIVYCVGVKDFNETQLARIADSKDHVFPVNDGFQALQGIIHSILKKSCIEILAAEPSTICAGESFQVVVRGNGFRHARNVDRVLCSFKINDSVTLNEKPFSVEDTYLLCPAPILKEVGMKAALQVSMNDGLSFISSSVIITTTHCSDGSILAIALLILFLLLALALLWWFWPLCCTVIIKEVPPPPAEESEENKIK
UniProt P02461, residues 154-1221: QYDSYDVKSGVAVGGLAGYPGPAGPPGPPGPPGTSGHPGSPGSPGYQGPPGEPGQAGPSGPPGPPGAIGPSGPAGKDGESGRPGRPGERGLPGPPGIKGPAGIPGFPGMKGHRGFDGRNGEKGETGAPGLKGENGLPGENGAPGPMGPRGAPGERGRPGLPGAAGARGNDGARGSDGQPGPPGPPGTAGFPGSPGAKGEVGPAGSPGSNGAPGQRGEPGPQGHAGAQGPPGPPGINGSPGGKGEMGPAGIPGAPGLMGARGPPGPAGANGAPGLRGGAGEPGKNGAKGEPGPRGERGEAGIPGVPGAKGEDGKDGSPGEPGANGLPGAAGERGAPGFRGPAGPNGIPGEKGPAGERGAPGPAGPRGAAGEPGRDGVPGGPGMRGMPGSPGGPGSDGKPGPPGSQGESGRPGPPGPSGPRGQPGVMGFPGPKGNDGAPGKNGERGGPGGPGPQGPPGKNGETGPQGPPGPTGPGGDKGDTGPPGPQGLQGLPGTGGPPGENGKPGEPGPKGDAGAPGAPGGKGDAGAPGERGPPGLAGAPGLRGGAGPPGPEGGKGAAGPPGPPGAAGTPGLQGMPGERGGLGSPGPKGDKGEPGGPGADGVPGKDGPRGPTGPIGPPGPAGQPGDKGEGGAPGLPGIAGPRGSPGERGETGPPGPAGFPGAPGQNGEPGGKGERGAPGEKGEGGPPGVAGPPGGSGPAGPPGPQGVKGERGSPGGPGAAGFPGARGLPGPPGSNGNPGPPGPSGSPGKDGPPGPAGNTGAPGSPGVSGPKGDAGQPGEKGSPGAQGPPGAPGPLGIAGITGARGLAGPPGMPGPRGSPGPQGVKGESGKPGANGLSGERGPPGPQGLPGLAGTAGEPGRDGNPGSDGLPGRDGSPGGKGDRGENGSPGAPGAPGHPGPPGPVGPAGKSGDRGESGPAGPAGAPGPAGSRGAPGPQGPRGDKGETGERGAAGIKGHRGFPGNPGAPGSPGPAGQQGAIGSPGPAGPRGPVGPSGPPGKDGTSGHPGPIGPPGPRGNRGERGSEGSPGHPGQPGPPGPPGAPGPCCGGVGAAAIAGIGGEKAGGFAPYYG
UniProt P02462: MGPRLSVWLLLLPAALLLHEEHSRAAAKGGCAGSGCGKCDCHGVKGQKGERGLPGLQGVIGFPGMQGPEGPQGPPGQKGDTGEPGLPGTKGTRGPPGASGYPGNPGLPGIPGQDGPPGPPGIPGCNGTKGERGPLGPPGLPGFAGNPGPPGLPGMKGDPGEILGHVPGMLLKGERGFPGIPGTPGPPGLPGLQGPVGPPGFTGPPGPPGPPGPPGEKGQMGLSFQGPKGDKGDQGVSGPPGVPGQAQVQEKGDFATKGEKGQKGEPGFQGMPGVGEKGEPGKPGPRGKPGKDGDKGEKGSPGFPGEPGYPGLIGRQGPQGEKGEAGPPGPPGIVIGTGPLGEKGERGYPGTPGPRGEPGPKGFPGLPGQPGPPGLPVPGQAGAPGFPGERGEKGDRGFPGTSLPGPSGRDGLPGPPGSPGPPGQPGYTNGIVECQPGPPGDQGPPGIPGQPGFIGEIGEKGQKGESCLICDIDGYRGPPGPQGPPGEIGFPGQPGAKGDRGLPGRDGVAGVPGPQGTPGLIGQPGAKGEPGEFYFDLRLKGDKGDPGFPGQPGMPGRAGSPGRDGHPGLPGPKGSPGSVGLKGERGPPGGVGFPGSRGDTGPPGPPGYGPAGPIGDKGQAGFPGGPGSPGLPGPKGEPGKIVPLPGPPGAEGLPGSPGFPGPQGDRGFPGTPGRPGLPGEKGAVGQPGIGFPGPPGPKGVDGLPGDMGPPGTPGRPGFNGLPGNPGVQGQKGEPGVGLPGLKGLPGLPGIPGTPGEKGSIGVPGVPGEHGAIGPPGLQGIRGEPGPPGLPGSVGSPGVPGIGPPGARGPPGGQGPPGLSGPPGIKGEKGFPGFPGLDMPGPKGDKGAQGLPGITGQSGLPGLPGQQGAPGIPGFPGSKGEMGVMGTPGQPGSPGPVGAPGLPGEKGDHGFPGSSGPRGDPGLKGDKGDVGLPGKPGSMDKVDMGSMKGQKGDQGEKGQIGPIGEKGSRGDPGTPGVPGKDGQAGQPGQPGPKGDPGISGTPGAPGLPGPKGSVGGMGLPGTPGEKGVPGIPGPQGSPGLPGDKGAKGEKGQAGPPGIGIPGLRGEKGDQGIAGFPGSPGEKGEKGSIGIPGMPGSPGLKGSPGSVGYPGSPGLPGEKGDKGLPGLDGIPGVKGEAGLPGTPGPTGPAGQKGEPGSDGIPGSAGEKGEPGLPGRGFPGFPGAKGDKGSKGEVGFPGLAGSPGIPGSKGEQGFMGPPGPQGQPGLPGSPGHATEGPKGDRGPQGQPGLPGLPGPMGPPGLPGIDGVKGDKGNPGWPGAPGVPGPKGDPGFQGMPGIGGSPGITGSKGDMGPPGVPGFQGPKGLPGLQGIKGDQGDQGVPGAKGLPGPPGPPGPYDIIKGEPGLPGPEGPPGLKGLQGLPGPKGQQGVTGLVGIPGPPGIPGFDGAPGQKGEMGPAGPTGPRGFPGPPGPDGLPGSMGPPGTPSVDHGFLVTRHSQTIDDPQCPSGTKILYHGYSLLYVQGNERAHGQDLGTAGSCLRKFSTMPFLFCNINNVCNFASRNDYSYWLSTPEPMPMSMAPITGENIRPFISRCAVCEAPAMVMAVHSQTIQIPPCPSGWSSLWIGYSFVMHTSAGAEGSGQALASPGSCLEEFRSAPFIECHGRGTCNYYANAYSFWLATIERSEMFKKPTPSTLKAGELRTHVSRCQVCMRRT
UniProt Q9UMD9, residues 490-1497: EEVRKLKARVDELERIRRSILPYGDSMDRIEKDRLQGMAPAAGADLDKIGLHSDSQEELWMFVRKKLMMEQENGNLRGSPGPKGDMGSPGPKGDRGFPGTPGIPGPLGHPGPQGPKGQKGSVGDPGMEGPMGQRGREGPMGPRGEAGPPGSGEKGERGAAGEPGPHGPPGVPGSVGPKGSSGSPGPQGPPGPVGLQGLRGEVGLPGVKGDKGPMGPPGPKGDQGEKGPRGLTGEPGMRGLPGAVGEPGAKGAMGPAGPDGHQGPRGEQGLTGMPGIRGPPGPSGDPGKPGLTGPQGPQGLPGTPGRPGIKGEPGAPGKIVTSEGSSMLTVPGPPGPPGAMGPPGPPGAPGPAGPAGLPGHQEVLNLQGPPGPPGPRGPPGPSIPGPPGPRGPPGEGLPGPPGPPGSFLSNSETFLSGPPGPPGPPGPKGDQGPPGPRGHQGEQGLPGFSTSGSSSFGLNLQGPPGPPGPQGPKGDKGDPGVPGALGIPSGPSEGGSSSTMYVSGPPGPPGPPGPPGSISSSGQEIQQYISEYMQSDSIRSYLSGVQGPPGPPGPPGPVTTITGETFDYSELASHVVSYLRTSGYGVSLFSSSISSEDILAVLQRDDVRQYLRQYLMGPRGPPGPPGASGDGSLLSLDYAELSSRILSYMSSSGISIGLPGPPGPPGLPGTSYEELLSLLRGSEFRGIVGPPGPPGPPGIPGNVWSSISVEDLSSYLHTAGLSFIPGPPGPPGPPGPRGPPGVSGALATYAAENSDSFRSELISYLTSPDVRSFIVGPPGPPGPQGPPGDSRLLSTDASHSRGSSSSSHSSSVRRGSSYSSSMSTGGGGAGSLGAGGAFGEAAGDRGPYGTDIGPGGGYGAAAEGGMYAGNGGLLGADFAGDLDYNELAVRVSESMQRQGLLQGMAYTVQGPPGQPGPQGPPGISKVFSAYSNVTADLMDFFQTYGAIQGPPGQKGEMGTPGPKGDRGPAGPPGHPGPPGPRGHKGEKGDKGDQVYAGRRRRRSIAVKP
UniProt P06756: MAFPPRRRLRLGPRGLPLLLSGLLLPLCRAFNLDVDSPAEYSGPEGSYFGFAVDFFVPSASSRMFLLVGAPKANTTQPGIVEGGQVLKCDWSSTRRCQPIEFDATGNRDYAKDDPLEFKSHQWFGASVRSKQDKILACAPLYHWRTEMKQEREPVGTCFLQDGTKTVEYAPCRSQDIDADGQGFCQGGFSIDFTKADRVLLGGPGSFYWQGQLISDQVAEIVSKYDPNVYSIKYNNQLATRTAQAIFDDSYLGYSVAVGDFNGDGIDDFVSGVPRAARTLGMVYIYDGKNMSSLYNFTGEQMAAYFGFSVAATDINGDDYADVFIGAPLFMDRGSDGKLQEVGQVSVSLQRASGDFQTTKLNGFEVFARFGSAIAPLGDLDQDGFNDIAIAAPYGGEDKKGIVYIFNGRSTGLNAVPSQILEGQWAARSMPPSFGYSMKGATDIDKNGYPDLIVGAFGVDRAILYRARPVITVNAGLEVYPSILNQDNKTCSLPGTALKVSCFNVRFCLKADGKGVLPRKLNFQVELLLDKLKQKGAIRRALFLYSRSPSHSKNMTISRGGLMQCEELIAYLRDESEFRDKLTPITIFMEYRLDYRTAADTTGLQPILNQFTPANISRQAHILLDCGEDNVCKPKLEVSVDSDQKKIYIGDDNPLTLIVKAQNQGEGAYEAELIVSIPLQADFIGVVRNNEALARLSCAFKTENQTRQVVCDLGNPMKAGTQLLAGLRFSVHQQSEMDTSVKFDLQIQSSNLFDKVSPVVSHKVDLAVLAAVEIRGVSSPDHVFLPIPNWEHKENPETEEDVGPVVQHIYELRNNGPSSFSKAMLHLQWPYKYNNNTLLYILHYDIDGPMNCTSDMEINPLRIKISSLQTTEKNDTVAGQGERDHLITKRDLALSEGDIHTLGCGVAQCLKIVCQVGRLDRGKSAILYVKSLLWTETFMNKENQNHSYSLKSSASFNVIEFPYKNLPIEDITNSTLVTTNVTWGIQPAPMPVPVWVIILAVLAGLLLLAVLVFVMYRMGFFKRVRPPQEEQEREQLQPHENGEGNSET
Lysyl oxidase propeptide (LOX-PP) (Pro24Leu) (P28300, form named): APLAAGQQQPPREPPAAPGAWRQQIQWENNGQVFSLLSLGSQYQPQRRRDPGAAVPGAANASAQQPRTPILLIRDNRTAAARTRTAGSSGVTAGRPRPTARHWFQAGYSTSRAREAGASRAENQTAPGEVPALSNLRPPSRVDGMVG

This passage reports binding results from PMC6078952.

Test [1] deals with Anthrax toxin receptor 1 (Tumor endothelial marker 8, TEM-8) (UniProt Q9H6X2). The test can be described thus: SPR; both purified.
A further test deals with Collagen III (UniProt P02461). The test can be described thus: SPR; SPR imaging (SPRi, Biacore Flexchip): partners spotted in triplicate on a bare gold chip at 0.06 to 1 mg/ml; purified LOX-PP injected at 2 µM and recirculated for 20 min; PBS with 0.05% Tween 20, 25 °C; both purified. (SPR reads the build-up and loss of mass on a sensor chip optically.)
For the next test, the target named is Collagen IV (UniProt P02462). The test is described as above.
Another test concerns the target Collagen XVII ectodomain (UniProt Q9UMD9). The description is as above.
The next test has as its target T1, Glypican 2 (UniProt Q8N158).
T1 sequence: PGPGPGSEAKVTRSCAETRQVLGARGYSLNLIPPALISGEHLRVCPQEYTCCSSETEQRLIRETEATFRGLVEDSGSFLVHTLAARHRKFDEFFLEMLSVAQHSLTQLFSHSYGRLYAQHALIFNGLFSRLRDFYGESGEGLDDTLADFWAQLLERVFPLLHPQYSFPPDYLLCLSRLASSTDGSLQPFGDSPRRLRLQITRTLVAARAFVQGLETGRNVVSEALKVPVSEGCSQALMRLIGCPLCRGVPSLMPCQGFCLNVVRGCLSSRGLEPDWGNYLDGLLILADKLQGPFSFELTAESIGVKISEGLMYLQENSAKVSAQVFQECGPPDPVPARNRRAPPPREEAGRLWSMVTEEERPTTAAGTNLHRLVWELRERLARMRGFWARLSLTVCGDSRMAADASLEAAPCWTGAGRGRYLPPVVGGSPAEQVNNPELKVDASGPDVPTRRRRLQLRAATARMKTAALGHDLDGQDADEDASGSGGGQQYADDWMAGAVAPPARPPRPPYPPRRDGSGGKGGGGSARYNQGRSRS
Described as above.

The target in a further test is T2, Glypican 5 (UniProt P78333).
T2 sequence: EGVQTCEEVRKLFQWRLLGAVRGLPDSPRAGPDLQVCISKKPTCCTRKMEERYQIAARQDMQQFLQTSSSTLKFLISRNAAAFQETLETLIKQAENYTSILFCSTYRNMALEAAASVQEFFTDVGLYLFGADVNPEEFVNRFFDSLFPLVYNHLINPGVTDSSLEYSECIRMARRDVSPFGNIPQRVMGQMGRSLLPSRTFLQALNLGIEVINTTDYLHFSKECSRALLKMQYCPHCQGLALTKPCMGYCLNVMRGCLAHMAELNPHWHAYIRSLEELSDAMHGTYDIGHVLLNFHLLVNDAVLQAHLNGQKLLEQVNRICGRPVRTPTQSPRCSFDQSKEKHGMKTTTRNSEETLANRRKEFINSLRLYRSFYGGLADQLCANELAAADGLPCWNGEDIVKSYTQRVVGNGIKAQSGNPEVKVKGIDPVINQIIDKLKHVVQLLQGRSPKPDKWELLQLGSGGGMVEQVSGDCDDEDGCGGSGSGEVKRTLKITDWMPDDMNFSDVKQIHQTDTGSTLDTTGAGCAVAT
The description is as above.

The next test has as its target Integrin αvβ5 ectodomain (UniProt P06756). The test is described as above.
The target of a further test is T3, Neuroglycan C (UniProt O95196).
T3 sequence: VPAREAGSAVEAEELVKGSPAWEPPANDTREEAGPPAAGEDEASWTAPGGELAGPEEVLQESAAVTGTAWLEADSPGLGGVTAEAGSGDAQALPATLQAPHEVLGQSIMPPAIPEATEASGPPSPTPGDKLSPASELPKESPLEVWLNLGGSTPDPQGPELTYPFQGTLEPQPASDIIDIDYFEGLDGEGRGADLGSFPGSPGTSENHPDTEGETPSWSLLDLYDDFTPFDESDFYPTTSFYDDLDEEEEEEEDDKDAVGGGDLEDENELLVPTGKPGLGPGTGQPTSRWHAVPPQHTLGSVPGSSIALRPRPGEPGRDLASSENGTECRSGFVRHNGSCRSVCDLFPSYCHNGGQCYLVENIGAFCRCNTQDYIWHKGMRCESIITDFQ
The test is described as above.

The next test concerns the target T4, Osteoprotegerin (UniProt O00300).
T4 sequence: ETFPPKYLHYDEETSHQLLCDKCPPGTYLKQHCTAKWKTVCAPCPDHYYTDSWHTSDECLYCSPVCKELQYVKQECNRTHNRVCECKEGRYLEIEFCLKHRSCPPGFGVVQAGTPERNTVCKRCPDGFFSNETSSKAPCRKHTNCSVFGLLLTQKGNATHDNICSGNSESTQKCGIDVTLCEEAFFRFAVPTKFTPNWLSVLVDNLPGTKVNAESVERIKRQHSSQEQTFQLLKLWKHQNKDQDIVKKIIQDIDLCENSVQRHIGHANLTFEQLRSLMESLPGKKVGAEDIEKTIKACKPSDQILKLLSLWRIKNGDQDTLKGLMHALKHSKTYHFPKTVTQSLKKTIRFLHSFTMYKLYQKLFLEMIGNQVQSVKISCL
The description is as above.

On to “Lysyl oxidase propeptide (LOX-PP) (Pro24Leu) (from UniProt P28300 22-168) (domain or fragment)”, for which the binding result in [1] was “binds”; in the test with Collagen III it was “no binding (tested: 2 µM)”; with Collagen IV it was “no binding (tested: 2 µM)”; in the test with Collagen XVII ectodomain, “no binding (tested: 2 µM)”; in the test with Glypican 2, “no binding (tested: 2 µM)”; with Glypican 5, “no binding (tested: 2 µM)”. Moreover, the binding result with Integrin αvβ5 ectodomain, with Neuroglycan C and with Osteoprotegerin was “no binding (tested: 2 µM)” throughout.
